# Data reported in PMC9911399, “Two distinct binding modes provide the RNA-binding protein RbFox with extraordinary sequence specificity”.
# Residue numbers refer to the chain shown, from its start. Some of the results follow.
# T1: RBFOX1 RRM (Homo sapiens, UniProt Q9NWB1 109-208)
# T1 sequence: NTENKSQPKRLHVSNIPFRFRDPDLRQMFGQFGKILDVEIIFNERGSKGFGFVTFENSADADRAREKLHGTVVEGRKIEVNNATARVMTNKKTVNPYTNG
# B1: AUCUUCC (DNA:RNA)
# RNA: GGGAGACCGGAAUUCAGAUUGUCCAUCUUCCUUAAAUCCCGUCGUAGCCACCA
# DNA 1: CAATCTGAATTCCGGTCTCCC
# DNA 2: TGGTGGCTACGACGGGATT
# B2: UUCGCGA (DNA:RNA)
# RNA: B1 RNA with A25U, U28G, U29C, C30G, C31A
# DNA 1: CAATCTGAATTCCGGTCTCCC
# DNA 2: TGGTGGCTACGACGGGATT
# B3: AUUACUG (DNA:RNA)
# RNA: B1 RNA with C27U, U28A, U29C, C30U, C31G
# DNA 1: CAATCTGAATTCCGGTCTCCC
# DNA 2: TGGTGGCTACGACGGGATT
# B4: CCCACGG (DNA:RNA)
# RNA: B1 RNA with A25C, U26C, U28A, U29C, C30G, C31G
# DNA 1: CAATCTGAATTCCGGTCTCCC
# DNA 2: TGGTGGCTACGACGGGATT
# B5: CAUAGAG (DNA:RNA)
# RNA: GGGAGACCGGAAUUCAGAUUGUCCCAUAGAGUUAAAUCCCGUCGUAGCCACCA
# DNA 1: CAATCTGAATTCCGGTCTCCC
# DNA 2: TGGTGGCTACGACGGGATT
# B6: UUGUAAU (DNA:RNA)
# RNA: B1 RNA with A25U, C27G, U29A, C30A, C31U
# DNA 1: CAATCTGAATTCCGGTCTCCC
# DNA 2: TGGTGGCTACGACGGGATT
# B7: UCGGCAC (DNA:RNA)
# RNA: B1 RNA with A25U, U26C, C27G, U28G, U29C, C30A
# DNA 1: CAATCTGAATTCCGGTCTCCC
# DNA 2: TGGTGGCTACGACGGGATT
# B8: CCAGGAU (DNA:RNA)
# RNA: B5 RNA with A26C, U27A, A28G, G31U
# DNA 1: CAATCTGAATTCCGGTCTCCC
# DNA 2: TGGTGGCTACGACGGGATT
# B9: GCAGGAC (DNA:RNA)
# RNA: B5 RNA with C25G, A26C, U27A, A28G, G31C
# DNA 1: CAATCTGAATTCCGGTCTCCC
# DNA 2: TGGTGGCTACGACGGGATT
# B10: CAACGGU (DNA:RNA)
# RNA: B5 RNA with U27A, A28C, A30G, G31U
# DNA 1: CAATCTGAATTCCGGTCTCCC
# DNA 2: TGGTGGCTACGACGGGATT
# B11: GCCGGGU (DNA:RNA)
# RNA: B1 RNA with A25G, U26C, U28G, U29G, C30G, C31U
# DNA 1: CAATCTGAATTCCGGTCTCCC
# DNA 2: TGGTGGCTACGACGGGATT
# B12: GUGUGUC (DNA:RNA)
# RNA: B1 RNA with A25G, C27G, U29G, C30U
# DNA 1: CAATCTGAATTCCGGTCTCCC
# DNA 2: TGGTGGCTACGACGGGATT
# B13: CGAGCAC (DNA:RNA)
# RNA: B5 RNA with A26G, U27A, A28G, G29C, G31C
# DNA 1: CAATCTGAATTCCGGTCTCCC
# DNA 2: TGGTGGCTACGACGGGATT
# B14: CGUCGAG (DNA:RNA)
# RNA: B5 RNA with A26G, A28C
# DNA 1: CAATCTGAATTCCGGTCTCCC
# DNA 2: TGGTGGCTACGACGGGATT
# B15: CGACAUC (DNA:RNA)
# RNA: B1 RNA with A25C, U26G, C27A, U28C, U29A, C30U
# DNA 1: CAATCTGAATTCCGGTCTCCC
# DNA 2: TGGTGGCTACGACGGGATT
# B16: CCAUCAU (DNA:RNA)
# RNA: B5 RNA with A26C, U27A, A28U, G29C, G31U
# DNA 1: CAATCTGAATTCCGGTCTCCC
# DNA 2: TGGTGGCTACGACGGGATT
# B17: GUUGAAU (DNA:RNA)
# RNA: B5 RNA with C25G, A26U, A28G, G29A, G31U
# DNA 1: CAATCTGAATTCCGGTCTCCC
# DNA 2: TGGTGGCTACGACGGGATT
# B18: AACACGG (DNA:RNA)
# RNA: B5 RNA with C25A, U27C, G29C, A30G
# DNA 1: CAATCTGAATTCCGGTCTCCC
# DNA 2: TGGTGGCTACGACGGGATT
# B19: UUCAUGC (DNA:RNA)
# RNA: B1 RNA with A25U, U28A, C30G
# DNA 1: CAATCTGAATTCCGGTCTCCC
# DNA 2: TGGTGGCTACGACGGGATT
# B20: GACCCAC (DNA:RNA)
# RNA: B1 RNA with A25G, U26A, U28C, U29C, C30A
# DNA 1: CAATCTGAATTCCGGTCTCCC
# DNA 2: TGGTGGCTACGACGGGATT
# B21: AAGUAGG (DNA:RNA)
# RNA: B1 RNA with U26A, C27G, U29A, C30G, C31G
# DNA 1: CAATCTGAATTCCGGTCTCCC
# DNA 2: TGGTGGCTACGACGGGATT
# B22: CGAAAGA (DNA:RNA)
# RNA: B5 RNA with A26G, U27A, G29A, A30G, G31A
# DNA 1: CAATCTGAATTCCGGTCTCCC
# DNA 2: TGGTGGCTACGACGGGATT
# B23: UACCAUC (DNA:RNA)
# RNA: B1 RNA with A25U, U26A, U28C, U29A, C30U
# DNA 1: CAATCTGAATTCCGGTCTCCC
# DNA 2: TGGTGGCTACGACGGGATT
# B24: AGUUGGC (DNA:RNA)
# RNA: B1 RNA with U26G, C27U, U29G, C30G
# DNA 1: CAATCTGAATTCCGGTCTCCC
# DNA 2: TGGTGGCTACGACGGGATT
# B25: AUAAGAA (DNA:RNA)
# RNA: B5 RNA with C25A, A26U, U27A, G31A
# DNA 1: CAATCTGAATTCCGGTCTCCC
# DNA 2: TGGTGGCTACGACGGGATT
# B26: UUCCCUU (DNA:RNA)
# RNA: B1 RNA with A25U, U28C, U29C, C30U, C31U
# DNA 1: CAATCTGAATTCCGGTCTCCC
# DNA 2: TGGTGGCTACGACGGGATT
# B27: CUAGUAA (DNA:RNA)
# RNA: B1 RNA with A25C, C27A, U28G, C30A, C31A
# DNA 1: CAATCTGAATTCCGGTCTCCC
# DNA 2: TGGTGGCTACGACGGGATT
# B28: AUAACAG (DNA:RNA)
# RNA: B5 RNA with C25A, A26U, U27A, G29C
# DNA 1: CAATCTGAATTCCGGTCTCCC
# DNA 2: TGGTGGCTACGACGGGATT
# B29: CGGCUCU (DNA:RNA)
# RNA: B1 RNA with A25C, U26G, C27G, U28C, C31U
# DNA 1: CAATCTGAATTCCGGTCTCCC
# DNA 2: TGGTGGCTACGACGGGATT
# B30: GCAUACU (DNA:RNA)
# RNA: B1 RNA with A25G, U26C, C27A, U29A, C31U
# DNA 1: CAATCTGAATTCCGGTCTCCC
# DNA 2: TGGTGGCTACGACGGGATT
# B31: AGAGCGU (DNA:RNA)
# RNA: B1 RNA with U26G, C27A, U28G, U29C, C30G, C31U
# DNA 1: CAATCTGAATTCCGGTCTCCC
# DNA 2: TGGTGGCTACGACGGGATT
# Molecular target: T1, RBFOX1 RRM
# Test: EMSA; HiTS-Eq, 1 nM pool, 10 min; buffer printed only for the single-RNA assays: 10 mM Tris pH 7.5, 150 mM NaCl, 3.4 mM EDTA, 0.001% NP-40, 30 C
# Conditions: tags: His6 N-terminal (pET28a); label: 5' 32P
# Summary of the method: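 A pool of RNA with 7 randomized nucleotides, 5′-radiolabelled and with DNA-annealed flanks, was equilibrated at 1 nM for 10 min in 50 µL with purified RbFox RRM, wild type or mutant, across increasing protein concentrations. Free RNA was separated by 8% native PAGE, excised, reverse-transcribed, barcoded by PCR and sequenced. Relative association constants were obtained from read-count changes of each RNA species versus the control reaction and normalised to the cognate motif.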
row,Binder,binding signal
1,B1,0.00367 KA relative to UGCAUGU
2,B2,0.0161 KA relative to UGCAUGU
3,B3,0.0108 KA relative to UGCAUGU
4,B4,0.00884 KA relative to UGCAUGU
5,B5,0.00555 KA relative to UGCAUGU
6,B6,0.00855 KA relative to UGCAUGU
7,B7,0.0124 KA relative to UGCAUGU
8,B8,0.0104 KA relative to UGCAUGU
9,B9,0.00817 KA relative to UGCAUGU
10,B10,0.00523 KA relative to UGCAUGU
11,B11,0.0167 KA relative to UGCAUGU
12,B12,0.0183 KA relative to UGCAUGU
13,B13,0.0163 KA relative to UGCAUGU
14,B14,0.0124 KA relative to UGCAUGU
15,B15,0.00501 KA relative to UGCAUGU
16,B16,0.00229 KA relative to UGCAUGU

row,Binder,binding signal
1,B17,0.016 KA relative to UGCAUGU
2,B18,0.00678 KA relative to UGCAUGU
3,B19,0.0106 KA relative to UGCAUGU
4,B20,0.00871 KA relative to UGCAUGU
5,B21,0.0082 KA relative to UGCAUGU
6,B22,0.0066 KA relative to UGCAUGU
7,B23,0.000341 KA relative to UGCAUGU
8,B24,0.0134 KA relative to UGCAUGU
9,B25,0.0057 KA relative to UGCAUGU
10,B26,0.00595 KA relative to UGCAUGU
11,B27,0.0016 KA relative to UGCAUGU
12,B28,0.00271 KA relative to UGCAUGU
13,B29,0.0106 KA relative to UGCAUGU
14,B30,0.00674 KA relative to UGCAUGU
15,B31,0.0131 KA relative to UGCAUGU
